Experimental data: PubChem BioAssay AID1645887 (National Center for Advancing Translational Sciences (NCATS), 2021)
“And” between values parts separate entries of the source, which are not always exact repeats. Equal entries are not always repeated. In all, about 16,000 compounds went through this assay and about 40 (0.2%) were called active. Inconclusive results (about 1%) are left out. Calls come from the whole dose curve; as a rule, active = well fitted activation curve with a large enough effect; inconclusive = small, poorly fitted or top-dose-only effect, or another doubt; inactive = no such curve, though single readings can be large or run the other way. The list shows a part of the results.

Each compound was assayed against Rap guanine nucleotide exchange factor 4 (Homo sapiens) (UniProt Q8WZA2) (assay: Validation qHTS for agonist of cAMP-regulated guanine nucleotide exchange factor 4 (EPAC2)). Settings: EPAC2 Rap1B BODIPY-GDP exchange, fluorescence; activation: active compounds read high.
In short: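 Signal normalized against 6.5 mM cAMP as agonist control. Mix of EPAC2 (100 nM), RAP1B-BODIPY-GDP (250 nM) and GDP (50 uM) was read kinetically at 480/540 nm, every 5 min over 30 min, after 5 min room-temperature incubation with compound.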
% is set by controls: 0 for no effect and ±100 for the full control effect.
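Note: exchange makes BODIPY-GDP fluorescence drop when released from Rap1B; series mostly up to about 150 µM.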

Sequence of UniProt Q8WZA2 (Q8WZA2 whole entry, looked up): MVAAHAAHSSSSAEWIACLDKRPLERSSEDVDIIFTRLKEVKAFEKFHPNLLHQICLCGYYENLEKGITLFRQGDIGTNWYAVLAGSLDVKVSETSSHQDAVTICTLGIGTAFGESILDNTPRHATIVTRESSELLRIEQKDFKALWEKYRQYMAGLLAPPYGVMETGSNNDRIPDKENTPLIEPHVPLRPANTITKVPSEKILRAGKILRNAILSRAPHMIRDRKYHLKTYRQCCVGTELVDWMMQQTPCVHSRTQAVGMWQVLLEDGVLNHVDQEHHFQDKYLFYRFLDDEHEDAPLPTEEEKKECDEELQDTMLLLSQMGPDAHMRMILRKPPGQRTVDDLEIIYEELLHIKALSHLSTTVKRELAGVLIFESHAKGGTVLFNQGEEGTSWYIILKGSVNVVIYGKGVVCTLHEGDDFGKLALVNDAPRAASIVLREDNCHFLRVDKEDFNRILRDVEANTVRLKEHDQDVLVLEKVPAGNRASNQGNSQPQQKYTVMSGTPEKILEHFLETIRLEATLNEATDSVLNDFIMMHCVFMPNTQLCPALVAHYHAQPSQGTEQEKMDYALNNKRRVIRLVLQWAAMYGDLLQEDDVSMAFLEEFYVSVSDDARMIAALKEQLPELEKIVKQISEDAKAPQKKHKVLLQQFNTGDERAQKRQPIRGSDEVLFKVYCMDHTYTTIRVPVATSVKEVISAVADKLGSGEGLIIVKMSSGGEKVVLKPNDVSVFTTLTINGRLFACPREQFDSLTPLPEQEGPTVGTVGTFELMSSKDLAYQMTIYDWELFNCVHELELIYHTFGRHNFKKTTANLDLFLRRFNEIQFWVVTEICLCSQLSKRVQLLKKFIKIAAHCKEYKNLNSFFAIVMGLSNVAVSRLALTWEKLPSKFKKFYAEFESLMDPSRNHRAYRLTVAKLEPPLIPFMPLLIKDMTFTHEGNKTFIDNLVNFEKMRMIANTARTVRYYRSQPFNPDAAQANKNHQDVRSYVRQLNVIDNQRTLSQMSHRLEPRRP

activation, inactive:
CN(C)c1ncc2nc(-c3ccccc3)c(=O)n(Cc3ccc(F)cc3)c2n1 2.95%
c1cn(-c2ccnc(-c3ccc4c(c3)OCO4)n2)cn1 -2.96%
O=C1NC(=O)[C@H]2[C@@H]1[C@@H]1C=C[C@H]2C1 1.71%
Cc1cnc(CNc2ccnc(-c3ccccc3Cl)n2)cn1 -4.08%
Cc1cc(-c2ccnc(-n3ncc(C(=O)NCCc4ccncc4)c3C)n2)c(C)s1 -8.22%
CS(=O)(=O)c1ccc(-c2ccc3c(c2)CC(CNC(=O)C2(N4CCOCC4)CCCCC2)O3)cc1 (centres undefined) -6.38%
O=C(Nc1cccc(F)c1)N1CCCC2(CCN(C(=O)c3cccc(F)c3)CC2)C1 -4.4%
COc1ccc(-c2nc3cnc(OC)nc3n(C[C@H]3CCCO3)c2=O)cc1 -6.48%
Cc1ccnc2cc(Cl)cc(Cl)c12 -1.99%
CCCCCCCCCCCCCCCC(=O)O[C@H]1[C@@H](O)[C@@H](O)[C@@H]([C@H](NC(=O)[C@@H]2C[C@@H](CCC)CN2C)[C@H](C)Cl)O[C@@H]1SC -51.3%
CC(=O)Oc1ccc2c(c1OC(C)=O)OCC1(O)Cc3c(cc(OC(C)=O)c(OC(C)=O)c3OC(C)=O)C21 (centres undefined) -2.49%
O=C(c1ccncc1)N1CCC[C@@]2(CCN(Cc3ccccc3)C2)C1 5.24%
Cc1nnc(C(=O)NC(C)(C)c2nc(C(=O)NCc3ccc(F)cc3)c(O)c(=O)n2C)o1 -0.147%
CC(=O)NCCNc1ncnc2ccc(-c3ccccc3C#N)cc12 -7.88%
COc1ccccc1-c1ccc2ncnc(N3CCOCC3)c2c1 -5.42%
CN1C2CCC1CC(OC(=O)c1c[nH]c3ccccc13)C2 (centres undefined) -37.1%
O=C(Cn1cc2ccccc2n1)N1CCOc2ccc(C(O)C3CCCCC3)cc2C1 (centres undefined) -36.5%
Cc1ccccc1OCC(O)CNCCOc1ccc(C(N)=O)cc1 (centres undefined) 6.08%
O=C(NCCc1nnc2n1CCN(Cc1c(F)cccc1F)CC2)c1ccc(F)cc1 2.68%
CC(C)NC[C@H](O)c1ccc2ccccc2c1 -4.19%
c1ncc(-c2ccc3c(c2)OCO3)c(NCCc2cnc[nH]2)n1 -19.7%
NC(=NC1C2CC3CC(C2)CC1C3)Nc1ccc(I)cc1 (centres undefined) -20.4% and -0.594% and -2.71%
CN1CCN(C2=Nc3ccccc3Oc3ccc(Cl)cc32)CC1 -8.12% and -5.4% and -53.6%
Cc1ncc2c(c1CNS(=O)(=O)N(C)C)CCN(C(=O)/C=C/c1cccc(F)c1)C2 -4.96%
COc1ccc(NC(=O)N2CCC3(CC2)CCN(C(=O)c2ccncc2)CC3)cc1 -35.9%
COc1c2occc2cc2ccc(=O)oc12 -8.12% and -2.67% and 13.2%
CC1=CC[C@@]2(CO)COC(c3ccccc3O)C1C2 (some centres undefined) -0.406%
CC(C)CN1CCC2(CC1)CCN(C(=O)c1ccncc1)CC2 -19.7%
O=C(NN1CCCC1)NS(=O)(=O)c1ccc(Cl)cc1 -5.84%
CCCCC/C=C\C/C=C\CCCCCCCC(=O)O[C@@H](CO)COC(=O)CCCCCCCCCCCCCCCCC 1.06%
NCc1ccccc1CC(=O)N[C@@H]1C(=O)N2C(C(=O)O)=C(CSc3nnnn3CC(=O)O)CS[C@H]12 0.0791%
CCc1ccccc1OC[C@@H](O)CN[C@H]1CCCc2ccccc21 -5.42%
Cc1sc2ccccc2[n+]1CCC[n+]1c(C)sc2ccccc21 4.56%
CN1CCN(c2ncncc2-c2ccccc2Cl)CC1 -13%
O=C(O)C[C@H]1c2cc(C(F)(F)F)ccc2S(=O)(=O)N1C1CCCC1 -20%
COc1ccccc1C1CN(CC(=O)N2CCC(C(O)c3ccccn3)CC2)Cc2ccccc2O1 (centres undefined) -12.8%
Cc1cccc(C)c1Nc1ncccc1C(=O)O -0.571%
COc1ccc(CNC(=O)C2CCCN2c2nc(C)c3ccccc3n2)cc1 (centres undefined) 8%
Cc1cc[n+](CCC2CCCCC2)cc1 -1.9%
COc1ncc2nc(-c3cn(C)c4ccccc34)c(=O)n(Cc3ccc(F)cc3)c2n1 1.2%
COc1cc(-c2cnc3ccccc3c2)cc2c1OCCN(S(=O)(=O)C[C@]13CC[C@H](CC1=O)C3(C)C)C2 -0.507%
CC1(C)CCC2(C(=O)O)CC[C@]3(C)C(=CCC4[C@]5(C)CCC(O)C(C)(C)C5C(O)C[C@]43C)C2C1 (some centres undefined) -42.9%
CC(C)C(NS(C)(=O)=O)c1nnc2n1CCN(Cc1ccc(C#CC(C)(C)O)cc1)CC2 (centres undefined) -3.74%
CCC1CN(CC(=O)NCc2ccc3c(c2)OCO3)Cc2ccc(Cl)cc2O1 (centres undefined) -18.4%
C[N+]1(C)CCC(OC(=O)C(O)(c2ccccc2)C2CCCC2)C1 (centres undefined) -1.74% and -0.704%
C[N+](C)(CCOc1ccccc1)Cc1cccs1 -2.61%
O=C(c1ccncc1)N1CCC2(CCCN(Cc3nccs3)C2)CC1 -6.97%
CCCCCCCCCCCCCCCCCCOCC(O)CO (centres undefined) -12.1%
O=C(c1cccc(F)c1)N1CCC2(CC1)CCN(c1cccc(-c3ccccc3)c1)CC2 -0.482%
CS(=O)(=O)N1CCC2(CCCN(Cc3ccc(C#N)cc3)C2)CC1 -11.2%
N#Cc1ccc(C(c2ccc(C#N)cc2)n2cncn2)cc1 -4.99%
O=c1c(-c2cc(F)cc(F)c2)nc2cncnc2n1Cc1ccccc1Cl 15.6%
CN(C)c1ncc2nc(-c3ccc(Cl)cc3)c(=O)n(C)c2n1 2.28%
Cc1ccc(-c2ccnc(-n3ncc(C(=O)NCCN4CCOCC4)c3C3CC3)n2)o1 -14.9%
CS(=O)(=O)Nc1cccc(-c2cc(Nc3ccccc3)ncn2)c1 -2.12%
Cc1c(Cn2ccnc2)c2ccccc2n1CCC(=O)O -29.2%
O=c1c(-c2ccc(Cl)cc2)nc2cnc(Oc3ccccc3)nc2n1C1CC1 -11.1%
O=C1CCN(Cc2ccccc2)CCN1[C@H](CO)c1ccccc1 -17.4% and -4.28%
CC[C@@H]1[C@H]2CCCC(=O)N3CC[C@@H](C[C@@H]1OC(=O)Nc1ccc4c(c1)OCO4)[C@@H]23 -21.7%
CCOC(=O)/C=C/c1ccc(C(F)(F)F)cc1S(=O)(=O)NC(C)(C)C -44.3%
CN(C)CC(C)(O)c1ccc2c(c1)CN(Cc1cccn1-c1ncccn1)CCO2 (centres undefined) 4.73%
CC(=O)NC1C(O)C[C@@](O)(C(=O)O)OC1[C@@H](O)C(O)CO (some centres undefined) -9.28%
CCCCCc1c2c(cc(O)c1C(=O)O)OC(=O)c1c(cc(OC)cc1C(=O)CCCC)O2 1.74%
O=C(Nc1cccc(F)c1)N1CCCC2(CCN(S(=O)(=O)c3ccccc3)CC2)C1 0.0038%
N[C@H](C(=O)O)c1ccc(O)c(C(=O)O)c1 -18% and 5.5%
Cc1noc(C)c1-c1ccc2ncnc(NC3CC3)c2c1 -22.6%
COc1ccc([C@@H]2CC(=O)c3c(O)cc(O)cc3O2)cc1O -2.33%
CC/C=C\C[C@H]1C(=O)CC[C@@H]1CC(=O)O -6.19%
CC1=C(CCC(=O)O)c2cc3nc(cc4[nH]c(cc5[nH]c(cc1n2)c(C)c5C(C)O)c(C)c4C(C)O)C(C)=C3CCC(=O)O (centres undefined) 0.598%
CCCOC(=O)c1ccccc1 -7.75%
COc1cc(=O)n2c(c1C(=O)NCc1ccco1)CCN(C(=O)c1ccc(C)c(C)c1)CC2 -7.15%
Cc1nc2cnc(N(C)C)nc2n(Cc2cccs2)c1=O 0.113%
COc1cc(=O)n2c(c1C(=O)N(C)Cc1nonc1C)CCN(Cc1cc(F)ccc1F)CC2 -23%
CN(C)CCCN1c2ccccc2Sc2ccc(C(F)(F)F)cc21 -5.06% and -13.2%
O=c1cnc2cnc(N3CCOCC3)nc2n1Cc1cccs1 -11.1%
Nc1c(CC(=O)O)cccc1C(=O)c1ccccc1 -14.3% and 6.97%
O=Cc1ccccc1C=O 20.1%
O=C(NCc1cccnc1)[C@@H]1CC=C[C@@H]2CCN(C3CCCCC3)C(=O)[C@@H]21 -16.8%
Oc1cc(O)c2c(c1)O[C@H](c1ccc(O)c(O)c1)[C@@H](O)C2 6.69% and -29.2%
Cc1[nH]ccc2c1[nH]c1cc(=O)ccc12 0.528% and -30.4%
O=Cc1c2[nH]c3ccccc3c2cc2[nH]c3ccccc3c12 -0.484% and -4.49% and 10.8%
CC(=O)Oc1ccccc1C(=O)Nc1ncc([N+](=O)[O-])s1 8.36%
CC(=O)OC1CCC2(C)C3CCC4(C)C(CC5CCCCC54C(C)=O)C3CC(=O)[C@@]2(O)C1 (some centres undefined) 4.1%
CCC(=O)OCC(=O)[C@@]1(OC(=O)CC)[C@@H](C)C[C@@H]2[C@H]3CCC4=CC(=O)C=C[C@]4(C)[C@@]3(F)[C@@H](O)C[C@@]21C -23.8%
